In all, about 110,000 compounds went through this assay and about 230 (0.21%) showed an effect of 50% or more. The list shows a part of the results.
Target: DPAP1 (Plasmodium falciparum, UniProt Q8IIJ9)
Assay: primary screen, percent inhibition; read by cleavage of a fluorogenic dipeptide substrate; higher = more effect of the substance
Parameters: species or system P. falciparum D10 trophozoite lysates; single well
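Further: 30 min substrate incubation versus DMSO and 10 µM JCP410 controls.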

Chain of DPAP1 (Q8IIJ9 whole entry, looked up): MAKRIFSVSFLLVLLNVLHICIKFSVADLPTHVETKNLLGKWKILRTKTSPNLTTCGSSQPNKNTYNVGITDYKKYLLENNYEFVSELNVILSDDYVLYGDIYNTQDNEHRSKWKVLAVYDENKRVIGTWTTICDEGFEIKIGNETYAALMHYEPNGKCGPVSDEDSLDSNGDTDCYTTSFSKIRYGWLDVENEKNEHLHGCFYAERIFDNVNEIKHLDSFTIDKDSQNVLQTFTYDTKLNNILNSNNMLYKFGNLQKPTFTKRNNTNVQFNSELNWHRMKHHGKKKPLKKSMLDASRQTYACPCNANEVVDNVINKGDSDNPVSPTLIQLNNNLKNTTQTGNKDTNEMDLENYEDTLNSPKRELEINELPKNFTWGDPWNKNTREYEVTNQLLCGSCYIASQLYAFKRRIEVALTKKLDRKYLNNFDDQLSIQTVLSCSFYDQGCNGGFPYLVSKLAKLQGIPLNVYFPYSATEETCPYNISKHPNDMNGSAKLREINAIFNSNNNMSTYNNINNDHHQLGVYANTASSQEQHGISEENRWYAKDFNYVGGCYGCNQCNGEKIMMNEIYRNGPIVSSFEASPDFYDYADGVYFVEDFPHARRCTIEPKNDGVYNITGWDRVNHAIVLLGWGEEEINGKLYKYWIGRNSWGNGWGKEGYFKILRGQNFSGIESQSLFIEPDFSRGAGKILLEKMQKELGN

SMILES | % Inhibition @ 10 uM [%]
c1cncc(CNC2CCCCCCC2)c1 | -2.03
COc1ccc(S(=O)Cc2ccc(C(=O)N3CCC(N4CCCCC4)CC3)o2)cc1 (stereo not drawn) | 2.03
CSc1ccc(COC(=O)N[C@@H](CC(C)C)C(=O)NCC#N)cc1 | -1.41
CC1=C(C(=O)Nc2ccc(Br)cn2)C(c2ccccn2)C2=C(O)CC(C)(C)CC2=N1 (stereo not drawn) | 0.385
CCCC[C@H](NC(=O)[C@H](CC(C)C)NC(=O)N1CCOCC1)C(=O)c1nc2ccccc2o1 | -0.214
COc1ccc(OC)c(NC(=O)c2cnccn2)c1 | -2.53
CC(NC(=O)c1cc(-c2ccc(F)cc2)on1)c1ccccc1 (stereo not drawn) | -0.601
CC1=NOC(=O)C1C(c1cccc(Br)c1)c1c(C)nn(-c2ccccc2)c1O (stereo not drawn) | 0.413
CC(C)(C)NC(=O)C1Cc2ccccc2CN1S(=O)(=O)c1cccs1 (stereo not drawn) | 3.8
CC1=C(c2ccc(Cl)cc2)S(=O)(=O)N=C1NC1CCCc2ccccc21 (stereo not drawn) | 5.42
CC(C)(C)NC(=O)c1sc2ccccc2c1Cl | -2.42
O=C(c1ccc(Br)o1)N1CCN(C/C=C/c2ccccc2)CC1 | -3.03
O=C(COc1ccc(Cl)cc1Cl)NCCOC12CC3CC(CC(C3)C1)C2 | 6.42
C1CCN(C2CCN(C3CCCC3)CC2)CC1 | -2.48
COc1cc(/C=C2/N=C(c3ccco3)OC2=O)cc(OC)c1OC | -3.71
CCCCOC(=O)c1ccc(NS(=O)(=O)c2ccc(C)cc2)cc1 | -1.38
CSc1ncc(C(=O)O)c(-c2ccccc2)n1 | 1.77
CCCOc1ccc(C2C3=C(CCCC3=O)N(CC(=O)O)C3=C2C(=O)CCC3)cc1OCC | -3.39
O=C(CCN1CCOCC1)Nc1ccc(OC(F)(F)F)cc1 | 1.57
Cc1cc(C)c2oc(-c3cccc(NC(=O)Cn4cnc5c(=O)n(C)c(=O)n(C)c54)c3)nc2c1 | 2.95
Cc1c(C)n(C)c2ccc(C(=O)N3CCN(c4ccccn4)CC3)cc12 | -6.08
CCC1C(C#N)=C(N)OC2=C1C(=O)CC(C)(C)C2 (stereo not drawn) | -8.63
CC(=O)Nc1ccc(S(=O)(=O)Nc2cccc(Cl)c2)cc1 | 3.01
COc1cccc(NC(=O)COc2cc(C)ccc2C)c1 | -6.27
O=C(CCc1ccccc1)Nc1ccc(NC(=O)CCc2ccccc2)cc1 | -9.68
COc1cccc(/C(O)=C/c2nc3ccc(C(F)(F)F)cc3nc2O)c1 | -3.41

SMILES | % Inhibition @ 10 uM [%]
CC(C)CC(=O)N1CC(=O)NC(=O)C1 | -2.2
COc1cc(-c2noc(CN3CCCC3)n2)cc(OC)c1OC | 1.15
CCc1ccc(C2(O)C[N+](c3cc(OC)ccc3OC)=C3CCCCCN32)cc1 (stereo not drawn) | -3.21
CCOc1ccc(N2C(=O)CC(N3CCN(c4ncccn4)CC3)C2=O)cc1 (stereo not drawn) | 4.06
CCOC(=O)c1sc(N2N=C(C)/C(=C\c3ccc(OCC)c(OC)c3)C2=O)nc1C | 0.884
CCN1CCN(Cc2csc(C)c2C)CC1 | -3.32
O=C(OCCN1CCCCC1)c1ccc2c(c1)OCO2 | 1.62
Cc1cccc(NC(=O)CN(C2CCCCC2)S(=O)(=O)c2ccc(F)cc2)c1 | 0.161
CC(C(=O)Nc1nncs1)N1C(=O)C2C3C=CC(C3)C2C1=O (stereo not drawn) | 4.18
Cc1cccc2c1-c1sc(C(=O)Nc3nccs3)cc1CO2 | -4.85
CN1CCC(N2CCN(c3ncccn3)CC2)CC1 | 2.1
COc1ccc(/C=C2\N=C(c3ccc(OC)cc3Br)OC2=O)cc1 | 0.264
CCCc1cc(N2CCN(c3ccccn3)CC2)n2cnnc2n1 | -3.49
Cc1nc2cc(S(=O)(=O)N(C)C)ccc2n1-c1ccccc1 | 2.94
CCOC(=O)c1c(NC(=S)NCc2ccccc2)sc2c1CCC1(CCCCC1)C2 | -2.15
CCN(C1CCCCC1)S(=O)(=O)c1cc(OC)c(Cl)cc1OC | 3.79
COc1ccc(N2C(=O)C3C(c4ccccc4F)OC4(C(=O)c5ccccc5C4=O)C3C2=O)cc1 (stereo not drawn) | 3.69
Cn1c(=O)c2c(nc(N3CCCCC3)n2CCCNC2=NCCCC2)n(C)c1=O | -3.63
COc1ccc(Nc2nc3cc(C)ccc3cc2C)cc1 | 1.83
COCCNC(=O)c1cc(-c2ccc(F)cc2)on1 | -5.52
CC(C)CCNC(=O)c1ccc(CS(=O)(=O)c2cccc(C(F)(F)F)c2)o1 | -1.28
c1cc2c(cc1CCNC1CCCCC1)OCO2 | -1.54
CC(=O)Nc1ccc(S(=O)(=O)Nc2ccc(C(C)C)cc2)cc1 | 4.67
Cc1ccc(CNC(=O)CCS(=O)(=O)c2cccc3nonc23)cc1 | 2.74
COc1cccc(C(=O)N(Cc2ccccc2F)C2CCS(=O)(=O)C2)c1 (stereo not drawn) | -8.82
Nc1nonc1-c1noc(C23CC4CC(CC(C4)C2)C3)n1 | 0.206

SMILES | % Inhibition @ 10 uM [%]
Cc1ccc(C(=N)NOC(=O)/C=C/c2ccccc2)cc1 | -5
CCN1CCc2[nH]c3ccccc3c2C1 | 2.47
CC1(C)CC(c2ccc([N+](=O)[O-])cc2)OC(c2ccccc2)=N1 (stereo not drawn) | 3.06
COC(=O)C1=CN(C2CC2)C=C(C(=O)OC)C1c1ccc(C(F)(F)F)cc1 | 2.56
CC12CC(NC(=O)N1CCc1ccccc1)c1ccccc1O2 (stereo not drawn) | 4.14
CCc1nn(-c2cc(Oc3ccc(C)c(C)c3)nc(SC)n2)c(N)c1C(N)=O | 0.583
Cc1sc2nc(-c3ccc(-c4ccc(C(=O)O)cc4)o3)nc(O)c2c1C | 17.1
Cc1ccc(Oc2nc3ccccn3c(=O)c2/C=C(\C#N)C(=O)N2CCCCC2)cc1 | 0.189
CCc1cccc2c1NC(=O)/C2=C1\SC(N)=NC1=O | -1.79
NC(=O)CN(Cc1ccccc1Cl)S(=O)(=O)c1ccc(Br)cc1 | -2.98
O=C(NC(=O)c1cccc2ccccc12)Nc1ccccc1Br | 6.53
CCOc1ccc(/C=C/C(O)=C2/C(=O)NC34CCCCC3C2c2ccccc2O4)cc1OC (stereo not drawn) | 0.569
O=C(COc1ccc2ccccc2c1Br)Nc1ccc(F)cc1 | 4.49
Cc1ccc(C(C(=O)NC2CCCC2)N(C)CCC#N)cc1 (stereo not drawn) | 0.457
Cc1ccccc1/C=C1\CCc2ccccc2C1=O | 1.83
CCN(CC)C(=O)C1CCCN(Cc2ccccc2)C1 (stereo not drawn) | 1.48
Cn1nnnc1SCCNCc1ccc(-c2ccccc2)o1 | 1.67
CC1(C)CC(=O)C(C(c2ccc(Cl)cc2Cl)C2C(=O)CC(C)(C)CC2=O)C(=O)C1 | 5.7
O=[N+]([O-])c1ccc(-c2[nH]nc(-c3ccccc3)c2-c2nc3ccccc3[nH]2)cc1 | 1.88
O=C(NC1CCCCC1)c1cc(-c2cccnc2)nc2ccccc12 | 2.79
CC1CC(C)CN(C(=O)CCn2nc(-c3ccccc3)ccc2=O)C1 (stereo not drawn) | -0.0542
COc1ccc(CC(=O)N2CCCC2)cc1 | -6.82
Cc1c(C(=O)NCc2ccc(F)cc2)sc2ncn(CC(=O)N3CCCC(C)C3)c(=O)c12 (stereo not drawn) | -3.23
Cc1cc(C)c(S(=O)(=O)Nc2cccc(Cl)c2C)c(C)c1 | -3.04
CC(C)(C)c1ccc(C(=O)N2CCN(c3ccccc3F)CC2)cc1 | 0.528
COc1ccc(CN2CCCN(C)CC2)cc1C | -3.65

SMILES | % Inhibition @ 10 uM [%]
CCOc1ccc(-c2nc(SCC(=O)NCc3ccco3)c(-c3ccccc3)[nH]2)cc1 | -1.58
Cc1cc(Cl)ccc1-n1c(S)nnc1CN1CCSCC1 | 3.48
c1ccc(-c2csc(Nc3ncccn3)n2)cc1 | 4.22
COc1ccc(-n2nc3c(c2NC(=O)CCc2ccccc2)CS(=O)(=O)C3)cc1 | 5.07
CCOC(=O)c1c(NC(=O)c2ccc(Cl)cc2)sc2c1CCCC2 | -5.5
COc1ccc(CCNC(=O)c2cc(=O)n(C)c(=O)n2C)cc1OC | 2.99
CCCCCNS(=O)(=O)c1ccc(Br)cc1 | -1.77
CC(=O)c1cc(F)c(N2CCOCC2)cc1C | 0.177
Cc1cccc(-c2nnc3sc(NC(=O)C(C)Oc4ccccc4)nn23)c1 (stereo not drawn) | 1.1
COc1ccc(C(=O)Nc2ccc(Br)cc2F)cc1OC | -5.1
CCCC(C)c1c(O)n(CC)c(=S)[nH]c1=O (stereo not drawn) | 6.41
O=C(O)CCCCCNc1ncnc2ccccc12 | 6.42
CS(=O)(=O)N1CCC(C(=O)NCCc2ccc(Cl)cc2)CC1 | 5.23
N#C/C(=C\c1ccc(-c2ccc(Cl)cc2)o1)c1nn(CCO)c(N)c1C#N | 7.24
O=C(NCCC1=CCCCC1)C1CCCN1S(=O)(=O)c1cccc2nsnc12 (stereo not drawn) | -4.1
CC1(C)CC(NC(=O)c2cccs2)CC(C)(C)N1 | -0.305
O=c1[nH]c(=O)n(-c2nc(-c3ccccc3)oc2-c2ccccc2)cc1Cl | 2.45
O=C(/C=C/c1ccc(Cl)cc1)NC1CCCCC1 | 1.35
COc1ccc(/C=C(\NC(=O)c2ccco2)C(=O)NC(CCSC)C(=O)O)cc1 (stereo not drawn) | 7.1
COc1ccccc1/C=c1\sc2nc(=O)c(C)nn2c1=O | 5.12
CCOc1ccccc1C(=O)Nc1ccc(Oc2ccc(C(=O)O)c(C(=O)O)c2)cc1 | 9.79
CN1C(=O)/C(=C2/C(=O)Nc3ccccc32)S/C1=N/c1ccc(Cl)cc1 | 7.34
Cc1ccc(-c2cc(C(F)F)n3ncc(C(=O)NCCCn4ccnc4)c3n2)cc1 | 4.08
c1ccc2c(Cc3c[nH]c4ccccc34)c[nH]c2c1 | -0.0372
